Assay results taken from paper PMC3648529 (PLoS ONE, 2013).

Biological target: T1, human Flag-tagged soluble TWEAK (amino acids 106-249) (human, UniProt O43508 106-249)
T1 construct: TWEAK, human, soluble form, amino acids 106-249 of the 249 amino acid protein
T1 sequence (looked up): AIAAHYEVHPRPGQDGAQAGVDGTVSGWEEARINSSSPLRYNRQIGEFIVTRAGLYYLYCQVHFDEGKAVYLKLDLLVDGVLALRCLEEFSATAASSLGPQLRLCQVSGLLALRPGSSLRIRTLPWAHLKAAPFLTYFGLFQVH
Experiment: ELISA; receptor interaction ELISA (competition): human Fn14:Fc coated at 1 ug/ml in PBS; Flag-tagged soluble TWEAK 2.5 ng/ml pre-incubated 2 h at room temperature with different concentrations of anti-TWEAK antibody or hybridoma supernatant; detection with anti-FLAG-HRP
Details: both partners purified

binding result: binds
B1: human Fn14:Fc (extracellular domain of human Fn14, […], fused to Fc portion of human IgG1) (Fc fusion)
chain: not shown
notes: signal peptide in the construct; Fn14 (TWEAK receptor), human, extracellular domain, […]; also called TWEAKR; TNFRSF12A
